Assay results: PubChem BioAssay AID624418 (National Center for Advancing Translational Sciences (NCATS), 2012)
In all, about 410,000 compounds went through this assay and about 530 (0.13%) were called active. Inconclusive means that the source gave no clear call. Such entries were picked first, then a sample of the others. Calls come from the whole dose curve; as a rule, active = well fitted inhibition curve with a large enough effect; inconclusive = small, poorly fitted or top-dose-only effect, or another doubt; inactive = no such curve, though single readings can be large or run the other way. Potencies beside an inconclusive call are fits to weak or partial responses and may not hold up.

experiment: qHTS of GLP-1 Receptor Inverse Agonists: Cytotox Screen; settings: HEK293 cAMP-luciferase reporter cells, luminescence, 24 h; activity change, negative = inhibition: at 38.3 µM (top of the series)
In short: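 1536-well qHTS counterscreen of the MLSMR; 200 cells/uL, 12 h pre-incubation, 23 nL cpd, 24 h at 37 deg C 5% CO2, luciferase detection reagent, 12 min RT, luminescence. Inhibition = undesired.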
% is set by controls: 0 for no effect and ±100 for the full control effect; potency is the fitted concentration of half-maximal effect.

| SMILES | Potency | activity change, negative = inhibition |
| --- | --- | --- |
| COc1cc(/C=C/c2sc3ccccc3[n+]2CCCS(=O)(=O)[O-])ccc1O | active: 10 µM |  |
| COC1C=COC2(C)Oc3c(C)c(O)c4c(O)c(c(CN5CCN(C)CC5)c(O)c4c3C2=O)NC(=O)C(C)=CC=CC(C)C(O)C(C)C(O)C(C)C(OC(C)=O)C1C (centres undefined) | inconclusive: 5.01 µM [inhibitor, full curve] |  |
| CCCCCCOc1ccc(/C=C/C(=O)Nc2sc3c(c2C(=O)OC)CCC3)cc1OC | inconclusive: 15.8 µM [inhibitor, single point] |  |
| CSC1SCC2C(=O)N(C)C(C(C)C)C(=O)OCC(NC(=O)c3cnc4ccccc4n3)C(=O)NC(C)C(=O)N(C)C1C(=O)N(C)C(C(C)C)C(=O)OCC(NC(=O)c1cnc3ccccc3n1)C(=O)NC(C)C(=O)N2C (centres undefined) | inconclusive: 0.794 µM [inhibitor, full curve, poor fit] |  |
| CC1=CC2=NC(=O)/C(=C/c3coc4ccc(Cl)cc4c3=O)C(=N)N2O1 | inconclusive: 22.4 µM [inhibitor, single point] |  |
| CC1CCCC(C)N1CC(O)COc1ccc(Cl)cc1 (centres undefined) | inconclusive: 31.6 µM [inhibitor, single point] |  |
| Cc1ccc(NC(=O)CSc2ccccc2)cc1S(=O)(=O)N1CCOCC1 | inactive |  |
| Cc1ccc(NC(=S)N=Nc2c(O)n(C)c3ccc(S(=O)(=O)N4CCOCC4)cc23)cc1C | inconclusive: 0.501 µM [inhibitor, full curve, poor fit] |  |
| CCC1CSC(Nc2ccc(C(=O)/C=C/c3ccc(Oc4ccccc4)cc3)cc2)=N1 (centres undefined) | inconclusive: 28.2 µM [inhibitor, single point] |  |
| O=C1NC(=O)c2cc3ccccc3cc21 | inactive |  |
| Cc1[nH]c2ccccc2c1N=Nc1cccc(C(=O)O)c1 | inconclusive: 22.4 µM [inhibitor, single point] |  |
| Cc1cc(C)cc(Nc2cc(=O)n(C3CCCCC3)c(=O)[nH]2)c1 | inconclusive: 22.4 µM [inhibitor, single point] |  |
| Cc1ccc(C(=O)NC(=C(Cl)Cl)S(=O)(=O)c2ccc(C)cc2)cc1 | inconclusive: 28.2 µM [inhibitor, single point] |  |
| COc1cc(NC(=O)c2ccc(COc3ccccc3Br)o2)cc(OC)c1OC | inconclusive: 12.6 µM [inhibitor, single point] |  |
| O=C1N=c2ccccc2=C1c1sc(Nc2cccc(O)c2)nc1O | inconclusive: 0.501 µM [inhibitor, full curve, poor fit] |  |
| CN1CCN(c2nc(-c3ccccn3)nc3ccccc23)CC1 | inconclusive: 5.62 µM [inhibitor, full curve, poor fit] |  |
| Cn1c(N/N=C/c2ccccc2)nc2sc3c(c2c1=O)CCC3 | inconclusive: 11.2 µM [inhibitor, partial curve, poor fit] |  |
| Nc1nc(CSC(=S)N2CCCCC2)nc(Nc2ccccc2)n1 | inconclusive: 25.1 µM [inhibitor, single point] |  |
| CC(NC(=S)NC1CCCCC1)C(c1ccccc1)N1CCOCC1 (centres undefined) | inconclusive: 8.91 µM [inhibitor, partial curve, poor fit] |  |
| O=C(/C=C/c1c(F)cccc1Cl)c1ccc(F)cc1 | inconclusive: 28.2 µM [inhibitor, single point] |  |
| CC(C)OC(=O)CC(=O)c1sc2nc3c(cc2c1N)CN(C)CC3 | inactive |  |
| O=C1OC(c2ccccc2)=C/C1=C/N1CCCCC1 | inconclusive: 20 µM [inhibitor, single point] |  |

| SMILES | Potency | activity change, negative = inhibition |
| --- | --- | --- |
| Cc1cc(N/N=C/c2ccc(O)cc2O)nc(-c2ccccc2O)n1 | inconclusive: 25.1 µM [inhibitor, single point] |  |
| CCN(CC)CCNC(=O)CCn1c(=O)c2cccn2c2cccnc21 | inactive |  |
| CC1CCc2c(nc3sc4c(c3c2N)CCCC4)C1 (centres undefined) | inconclusive: 7.94 µM [inhibitor, partial curve] |  |
| COc1ccc2c(c1)C1C=CCC1C(c1cc3c(cc1Br)OCO3)N2 (centres undefined) | inconclusive: 11.2 µM [inhibitor, partial curve, poor fit] |  |
| COc1ccc(C(=O)CSc2nnc(COc3ccccc3)n2Cc2ccco2)cc1 | inconclusive: 28.2 µM [inhibitor, single point] |  |
| CC(C)C1Nc2c(O)cc(Cl)c([N+](=O)[O-])c2C2C=CCC21 (centres undefined) | inconclusive: 11.2 µM [inhibitor, partial curve, poor fit] |  |
| Cc1cccc(-n2c(=O)c3c(c4cc(C)ccc4n3C)n(CC(=O)Nc3ccccc3C(F)(F)F)c2=O)c1 | inactive |  |
| COc1cc(-c2cc3nc(NCCOc4ccccc4)ccn3n2)cc(OC)c1OC | inconclusive: 11.2 µM [inhibitor, single point] |  |
| CCCC(Oc1ccc(Br)cc1)c1nc2c3cc(OC)c(OC)cc3nc(=S)n2[nH]1 (centres undefined) | inconclusive: 11.2 µM [inhibitor, partial curve, poor fit] |  |
| Cc1ccccc1OCC(O)Cn1c(=N)n(CCN2CCOCC2)c2ccccc21 (centres undefined) | inconclusive: 10 µM [inhibitor, partial curve, poor fit] |  |
| Cc1ccc(OCC(=O)c2cc(C)n(-c3cc(C)on3)c2C)c([N+](=O)[O-])n1 | inconclusive: 28.2 µM [inhibitor, partial curve, poor fit] |  |
| O=C(CC1C(=O)N(c2ccccc2)C(=S)N1c1ccccc1)c1ccccc1 (centres undefined) | inactive |  |
| COc1ccccc1-c1cc(C(F)(F)F)nc(S(=O)(=O)CCCC(=O)Nc2cccnc2Cl)n1 | active: 8.91 µM |  |
| O=C(N/N=C/c1cccs1)C1COc2ccccc2O1 (centres undefined) | inconclusive: 12.6 µM [inhibitor, partial curve, poor fit] |  |
| S=c1[nH]nc(CCc2ccccc2)n1-c1ccc(Cl)cc1 | inconclusive: 10 µM [inhibitor, partial curve, poor fit] |  |
| O=C(CN(c1ccccc1Cl)S(=O)(=O)c1ccccc1)NC1CC2CCC1C2 (centres undefined) | inactive |  |
| CCCCN1C(=S)NC[C@@H]1c1ccccc1 | inconclusive: 28.2 µM [inhibitor, single point] |  |
| Cc1cc(C(=O)N/N=C/c2c(C)nn(-c3ccccc3)c2Cl)n[nH]1 | inconclusive: 28.2 µM [inhibitor, single point] |  |
| CC(=O)Nc1ccc(NC(=S)NC(=O)/C=C/c2ccco2)cc1 | inconclusive: 28.2 µM [inhibitor, single point] |  |
| O=C1C=C(N2CCN(c3ccccn3)CC2)C(=O)c2c(O)ccc(O)c21 | inconclusive: 5.01 µM [inhibitor, partial curve] |  |
| Cc1ccc(NC2CCCCC2NS(=O)(=O)c2ccc(Cl)cc2)cc1 (centres undefined) | inconclusive: 10 µM [inhibitor, single point] |  |
| Cc1cc(C(=O)NN=C2CCCCC2)c2ccccc2n1 | inconclusive: 10 µM [inhibitor, single point] |  |

| SMILES | Potency | activity change, negative = inhibition |
| --- | --- | --- |
| CCOc1ccc(CN(CCC#N)C(=S)NC(=O)c2ccccc2)cc1 | inconclusive: 10 µM [inhibitor, partial curve, poor fit] |  |
| C=CC[n+]1c(-c2ccc(C)cc2)csc1NNC(=O)Nc1ccccc1 | inconclusive: 3.55 µM [inhibitor, partial curve, poor fit] |  |
| CCc1ccc2[nH]c(=O)c(CN(CCN(CC)CC)C(=O)Nc3ccccc3OC)cc2c1 | inconclusive: 12.6 µM [inhibitor, single point] |  |
| COc1ccc(CNc2cc(NCCCO)c([N+](=O)[O-])c3nonc23)cc1 | inconclusive: 11.2 µM [inhibitor, single point] |  |
| CC(=C/c1ccccc1)/C=N/NC(=O)c1nnn(-c2nonc2N)c1CN1CCC(C)CC1 | inactive |  |
| CC1CCCN(CCCOc2ccccc2-c2ccccc2)C1 (centres undefined) | inconclusive: 15.8 µM [inhibitor, single point] |  |
| CN(CC(=O)Nc1ccc(F)cc1)C(=O)c1ccccc1OCc1ccc(F)cc1 | inconclusive: 20 µM [inhibitor, single point] |  |
| Nc1c(C(=O)Nc2ccccc2Cl)c2ccccn2c1C(=O)c1ccc(Cl)cc1 | inactive |  |
| CCN(CC)c1ccc2c(-c3ccc(S(=O)(=O)O)cc3S(=O)(=O)[O-])c3ccc(=[N+](CC)CC)cc-3oc2c1 |  | inconclusive: -116% [inhibitor] |
| COc1cc2cc(-c3ccc(O)cc3O)nc(C)c2cc1OC | inactive |  |
| CC1CC(=O)NN=C1c1ccc(N(C)C)c([N+](=O)[O-])c1 (centres undefined) | inconclusive: 15.8 µM [inhibitor, single point] |  |
| Cc1ccc(NCc2ccc(O)c3ncccc23)cc1 | inactive |  |
| NNC(=S)Nc1c(F)cc(F)cc1Br | inconclusive: 28.2 µM [inhibitor, single point] |  |
| C/C(=N\Nc1ccccn1)c1ccc(Br)s1 | inconclusive: 10 µM [inhibitor, partial curve, poor fit] |  |
| COc1cccc(CCN2CCC(CNS(=O)(=O)c3cc(-c4cc(C)no4)ccc3C)CC2)c1 | inconclusive: 28.2 µM [inhibitor, single point] |  |
| O=C(NC(=S)Nc1ccccc1N1CCCCC1)c1ccc(F)cc1 | inconclusive: 28.2 µM [inhibitor, single point] |  |
| CS(=O)(=O)N1CCC(NC(=O)Nc2ccc(OC(F)(F)F)cc2)CC1 | inconclusive: 7.94 µM [inhibitor, partial curve, poor fit] |  |
| Cc1nnsc1S(=O)c1ccc(Cl)cc1 (centres undefined) | inactive |  |
| O=C(CCc1ccccc1)NC(=S)NCc1ccco1 | inconclusive: 28.2 µM [inhibitor, single point] |  |
| COc1cc2c(cc1OC)CN(C(=O)c1cc(=O)c3ccccc3o1)CC2 | inconclusive: 2.82 µM [inhibitor, full curve] |  |
